± gives the standard deviation of the averaged measurements. The list shows a part of the results.

The test system of this assay is PfAP2-I AP2 domain 3 (GST-tagged). Kind of assay: gcPBM binding intensity (ln(normalized median fluorescence intensity)); higher = stronger DNA binding. The method, boiled down: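 After 1 h on an Agilent 4 × 180k array of primer-extended double-stranded 36-bp intergenic genomic probes and negative controls, bound GST-tagged P. falciparum DNA-binding domains were detected with Alexa488 anti-GST antibody and scanned at 488 nm. The domains had been expressed in E. coli, and binding took place in 1× PBS with 1% milk, 0.2 mg/ml BSA, 0.5% salmon testes DNA and 0.03% Triton X-100. Binding intensity is the highest Masliner-normalised natural-log median intensity across replicate spots of either probe orientation.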
Regarding “TATAATTATATAAATTGTACATAAAAAGTTTTTACT [XGTACX_site3621]”, the “gcPBM binding intensity (ln)” value was 7.71 ± 0.38.
Then “GTAAAATTTACATAGAGTACTTATATTTTTTTCTGC [XGTACX_site3414]”, with 7.58 ± 0.59.
Under “CACAAATATACAAATACACACAAATATACAAATACA [CACACA_site2385]” stands 7.72 ± 0.45; under “CAGTTTACTAATATTGCACACGAATATGAAAAAGAG [CACACA_site8941]”, 9.895 ± 0.035; under “TTTTTCACACTTCAAAAGTGTCAACCTTCTATTCTC [TGCATGCA_negctrl_site489]”, 7.75 ± 0.79.
Under TTATCATTTGCCATTGTGCACTTATATGCTCACATT stands 10.97 ± 0.028.
For the sequence TTTTTTTTTCAAGAGGTGCGTGTATTTTAACAAAAA, the “gcPBM binding intensity (ln)” value was found to be 8.94.
Turning to AAAAAAAATTATGAAGTGCATTAGTGAATTTGATTG, the “gcPBM binding intensity (ln)” value is 10.9 ± 0.3.
On to “TTGTCTACAAAAATGTGCTTCTAATCATACGACTTG [CACACA_negctrl_site46]”, for which the “gcPBM binding intensity (ln)” value was found to be 7.6 ± 0.75.
As for “TACATATATTATTGCACACATATAAAATACCCCCAA [CACACA_site3895]”, the “gcPBM binding intensity (ln)” value was 10.6 ± 0.28.
As for “TCTTGTCTACCTTGTATTTAATATTTACATATATAA [TGCATGCA_negctrl_site320]”, the “gcPBM binding intensity (ln)” value was 8.25 ± 0.68.
In the case of “TATTTCTTATTACATACACACATATACATAGATGAC [CACACA_site5729]”, the “gcPBM binding intensity (ln)” value was 8 ± 0.55.
On to “TATATGTTTTTATGTACACACTTTTAACCTAAGAAA [CACACA_site4769]”, for which the “gcPBM binding intensity (ln)” value was 8.27 ± 0.14.
For the sequence “TTCTTGTATATATTTTGTACATATATACCATTTTAG [XGTACX_site2409]”, the “gcPBM binding intensity (ln)” value is 8.33 ± 0.75.
Under “TATTTGTAAAAATTGTGTACTTAGAAAATTCCAAAA [XGTACX_site6007]” stands 7.84 ± 0.33.
Then “AAAAAAAATAAAATAATAAAAATTATGAATATATAT [CACACA_negctrl_site280]”, with 7.71 ± 0.64; and “TGGAGGTCAGTTCACAGTACCCAGTAACTCTACGGA [XGTACX_site2549]”, with 7.24 ± 0.68.
Then “ATCATTCCACTTTTCACACATATCTCTATTTCTATC [CACACA_site4723]”, with 8.31 ± 0.76; and “AAATGTATAGGAATAATAATAAAAAAAAAAAAAAAT [CACACA_negctrl_site1793]”, with 7.49 ± 0.59; and “ATAGGTAATAATAATACACACGGTGAAATATAGATG [CACACA_site9336]”, with 8.04 ± 0.66.
As for “AATAAAATGCAATACATTTTGTTATATAATGTTGTT [CACACA_negctrl_site1525]”, the “gcPBM binding intensity (ln)” value is 7.54 ± 0.47.
Under “CACAATGTAGTGTATAAATACAATAAAAGGTTGTAT [CACACA_negctrl_site700]” stands 7.74 ± 0.6; under “ATTTTTTTTTTCTTTTTTTTTTGTTTTTCTCCTTTT [CACACA_negctrl_site1182]”, 7.5 ± 0.46.
Then “ATTTTTTTTATTATTACACACATATAATAAAAAAAT [CACACA_site1802]”, with 8.03 ± 0.42; and “TAAAGTGTAAAATTCACACACATATATATATATATA [CACACA_site4883]”, with 9.46 ± 0.51.
Under “ATATTGTAAGTAAACACACACACATATATCTGTATA [CACACA_site4541]” stands 7.55 ± 0.69; under “GTATAATTTATTGAACGTACACATATATATATGTAT [XGTACX_site1395]”, 7.92 ± 0.28; under “TTTAAAATAACCAAAAACAAAAAGAAACACAAATGT [GTGCAC_negctrl_site705]”, 7.82 ± 0.76.
In the case of “AAAAAAAAAATTTACTGTACACATTTGGGATACTCA [XGTACX_site5191]”, the “gcPBM binding intensity (ln)” value was found to be 7.58 ± 0.26.
As for “GATCAAATAGAAAATACATGCAATGTGTGAAATAAC [TGCATGCA_site835]”, the “gcPBM binding intensity (ln)” value is 8.32 ± 0.92.
On to TTTCAAATGGAATGTGTGCACATAAATGTAAATAAA, for which the “gcPBM binding intensity (ln)” value is 10.1 ± 0.16.
Under “TATAAGTTGATATATACACACATATATAAATATGTA [CACACA_site7526]” stands 7.4 ± 0.4; under “TATTTATAAAAATATACACACATACAAATATGCATA [CACACA_site4555]”, 7.57 ± 0.5.
Then “CTTATTTAATGTATCACACACGAGAATAAAAAATAA [CACACA_site3020]”, with 7.86 ± 0.54; and “ATGGTTTTCAGAAAAACATGCATACAATAATAAAAA [TGCATGCA_site815]”, with 8.02 ± 0.71; and “AATTAATATATAAATAATAAAAAAAAATATATAAAC [XGTACX_negctrl_site280]”, with 7.71 ± 0.77.
Then “CAATATTTTCATAGATGTACTTTGGACTTATTATAT [XGTACX_site4849]”, with 7.5 ± 0.37.
As to “TAAATAAAAGATACGAGTACGTATGATGTTAACCTC [XGTACX_site8840]”, the “gcPBM binding intensity (ln)” value is 7.8 ± 0.59.
Take “GTATATAGTATGTAGAGTACTAATTTCCATATGTTC [XGTACX_site7816]”: the “gcPBM binding intensity (ln)” value stood at 7.7 ± 0.44.
Under “ATTTATATATAGGTGTGTCCACAAATAGTATGTAAA [XGTACX_site2916]” stands 8.19 ± 0.38; under “TATAACCATATATACACACACATATAAATATAAATA [CACACA_site7089]”, 7.67 ± 0.59; under “TATATTTTAATTTGAAGTACTAATATTTATTTATAT [XGTACX_site7458]”, 7.53 ± 0.38.
For ATATATATATATTTCGTGCACTGATAATATTATTTT, the “gcPBM binding intensity (ln)” value is 11.2 ± 0.35.
Then “AAGGTGGAAACAATTACACACACACTAAAAAAAAAA [CACACA_site7493]”, with 8.3 ± 0.61.
On to “ATGAAAAAAAATAAAAAATATATATATATATATATA [CACACA_negctrl_site236]”, for which the “gcPBM binding intensity (ln)” value turned out to be 9.47 ± 0.59.
